These are yes or no findings as the source states them, for the method shown. Some binding calls cover weakened binding; strength is not graded here.
T1: ARF19 (Arabidopsis thaliana) (UniProt Q8RYC8)
T1 sequence: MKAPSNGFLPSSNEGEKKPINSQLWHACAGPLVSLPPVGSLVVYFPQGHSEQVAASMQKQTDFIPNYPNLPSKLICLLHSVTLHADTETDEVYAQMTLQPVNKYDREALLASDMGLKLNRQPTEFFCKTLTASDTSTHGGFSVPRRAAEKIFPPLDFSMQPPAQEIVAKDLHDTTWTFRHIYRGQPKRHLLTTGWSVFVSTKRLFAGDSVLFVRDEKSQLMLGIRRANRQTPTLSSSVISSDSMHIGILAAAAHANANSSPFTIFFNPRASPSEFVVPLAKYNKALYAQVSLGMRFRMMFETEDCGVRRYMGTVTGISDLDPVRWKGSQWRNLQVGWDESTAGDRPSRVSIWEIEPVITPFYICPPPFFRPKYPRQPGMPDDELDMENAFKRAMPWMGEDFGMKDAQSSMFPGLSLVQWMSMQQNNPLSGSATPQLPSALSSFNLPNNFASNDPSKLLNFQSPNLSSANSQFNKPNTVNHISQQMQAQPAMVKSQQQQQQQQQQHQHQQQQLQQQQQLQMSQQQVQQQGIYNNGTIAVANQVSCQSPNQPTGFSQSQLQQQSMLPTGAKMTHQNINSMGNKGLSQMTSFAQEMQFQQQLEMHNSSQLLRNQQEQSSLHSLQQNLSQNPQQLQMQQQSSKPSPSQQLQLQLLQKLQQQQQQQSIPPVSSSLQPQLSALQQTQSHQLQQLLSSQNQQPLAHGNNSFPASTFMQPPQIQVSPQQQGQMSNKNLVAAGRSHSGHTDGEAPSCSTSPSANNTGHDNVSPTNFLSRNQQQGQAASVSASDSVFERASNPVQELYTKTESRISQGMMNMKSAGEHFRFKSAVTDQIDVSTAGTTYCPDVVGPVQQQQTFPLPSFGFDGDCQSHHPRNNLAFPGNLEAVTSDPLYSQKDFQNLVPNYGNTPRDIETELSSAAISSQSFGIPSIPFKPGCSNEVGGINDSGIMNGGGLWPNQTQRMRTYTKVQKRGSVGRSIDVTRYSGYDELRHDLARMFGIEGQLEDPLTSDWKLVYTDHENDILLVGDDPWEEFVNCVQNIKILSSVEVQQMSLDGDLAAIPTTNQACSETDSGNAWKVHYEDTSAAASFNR

T2: ARF4 (Arabidopsis thaliana) (UniProt Q9ZTX9)
T2 sequence: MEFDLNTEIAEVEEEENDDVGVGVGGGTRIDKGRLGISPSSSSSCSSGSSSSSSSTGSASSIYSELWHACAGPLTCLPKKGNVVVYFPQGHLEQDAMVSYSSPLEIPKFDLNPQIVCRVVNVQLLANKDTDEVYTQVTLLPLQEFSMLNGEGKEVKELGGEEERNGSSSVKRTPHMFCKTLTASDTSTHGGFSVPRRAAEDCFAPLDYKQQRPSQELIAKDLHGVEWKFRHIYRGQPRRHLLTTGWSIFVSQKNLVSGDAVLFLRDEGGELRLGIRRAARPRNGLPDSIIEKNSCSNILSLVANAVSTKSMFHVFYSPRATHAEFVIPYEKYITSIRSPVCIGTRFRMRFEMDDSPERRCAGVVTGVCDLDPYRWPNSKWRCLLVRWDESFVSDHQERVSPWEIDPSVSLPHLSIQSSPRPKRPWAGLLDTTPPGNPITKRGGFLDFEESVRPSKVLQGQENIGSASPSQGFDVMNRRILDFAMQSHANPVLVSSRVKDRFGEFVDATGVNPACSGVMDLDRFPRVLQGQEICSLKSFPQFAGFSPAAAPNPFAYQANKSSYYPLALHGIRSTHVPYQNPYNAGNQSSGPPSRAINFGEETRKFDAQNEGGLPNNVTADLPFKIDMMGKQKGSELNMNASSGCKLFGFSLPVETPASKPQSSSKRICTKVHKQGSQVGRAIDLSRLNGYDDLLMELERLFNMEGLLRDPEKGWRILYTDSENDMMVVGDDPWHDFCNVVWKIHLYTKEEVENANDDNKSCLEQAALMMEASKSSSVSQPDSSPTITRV

T3: ARF12 (Arabidopsis thaliana) (UniProt Q9XID4)
T3 sequence: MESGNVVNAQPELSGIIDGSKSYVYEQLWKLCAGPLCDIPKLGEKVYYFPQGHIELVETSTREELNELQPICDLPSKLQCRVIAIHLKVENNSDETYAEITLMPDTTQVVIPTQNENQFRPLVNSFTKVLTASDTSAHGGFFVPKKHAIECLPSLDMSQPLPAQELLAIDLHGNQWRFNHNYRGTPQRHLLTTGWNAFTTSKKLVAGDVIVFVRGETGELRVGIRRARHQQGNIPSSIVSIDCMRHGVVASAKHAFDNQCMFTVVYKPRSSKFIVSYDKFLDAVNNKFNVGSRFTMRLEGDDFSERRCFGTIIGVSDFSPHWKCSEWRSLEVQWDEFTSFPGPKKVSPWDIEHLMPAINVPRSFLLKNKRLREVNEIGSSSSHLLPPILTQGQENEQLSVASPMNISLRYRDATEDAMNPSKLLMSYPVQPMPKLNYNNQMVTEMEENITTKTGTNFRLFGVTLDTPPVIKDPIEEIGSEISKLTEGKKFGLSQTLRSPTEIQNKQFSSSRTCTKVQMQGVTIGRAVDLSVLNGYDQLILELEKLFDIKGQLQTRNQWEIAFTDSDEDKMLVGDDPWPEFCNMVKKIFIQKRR


What was measured:
Assay in all cases: two-hybrid; S. cerevisiae AH109 co-transformed with pGBKT7-ARF (bait) and pGADT7-Aux/IAA (prey); growth on SD/-Ade-His-Leu-Trp against SD/-Leu/-Trp; at least 10 independent colonies; serial dilutions for strength
[1] = target: T1, ARF19 (Arabidopsis thaliana)
[2] = target: T2, ARF4 (Arabidopsis thaliana)
[3] = target: T3, ARF12 (Arabidopsis thaliana)

| Binder | binding [1] | binding [2] | binding [3] |
| --- | --- | --- | --- |
| Aux/IAA33 (protein, UniProt Q9FKM7 1-171) MNSFEPQSQDSLQRRFHQDNSTTQQPRDTTTPFIPKPASKNHNNSNSSSGAAGRSFQGFGLNVEDDLVSSVVPPVTVVLEGRSICQRISLDKHGSYQSLASALRQMFVDGADSTDDLDLSNAIPGHLIAYEDMENDLLLAGDLTWKDFVRVAKRIRILPVKGNTRQVKRNE | binds | binds | no binding |
| Aux/IAA34 (protein, UniProt Q9C5X0 1-185) MYCSDPPHPLHLVASDKQQKDHKLILSWKKPTMDSDPLGVFPNSPKYHPYYSQTTEFGGVIDLGLSLRTIQHEIYHSSGQRYCSNEGYRRKWGYVKVTMDGLVVGRKVCVLDHGSYSTLAHQLEDMFGMQSVSGLRLFQMESEFCLVYRDEEGLWRNAGDVPWNEFIESVERLRITRRNDAVLPF | binds weakly | binds | no binding |
| Aux/IAA4 (protein, UniProt P33077 1-186) MEKVDVYDELVNLKATELRLGLPGTEETVSCGKSNKRVLPEATEKEIESTGKTETASPPKAQIVGWPPVRSYRKNNVQTKKSESEGQGNYVKVSMDGAPYLRKIDLTMYKQYPELMKSLENMFKFSVGEYFEREGYKGSDFVPTYEDKDGDWMLVGDVPWEMFVSSCKRLRIMKGSEVKGLGCGGL | binds | binds | no binding |
| Aux/IAA5 (protein, UniProt P33078 1-163) MANESNNLGLEITELRLGLPGDIVVSGESISGKKRASPEVEIDLKCEPAKKSQVVGWPPVCSYRRKNSLERTKSSYVKVSVDGAAFLRKIDLEMYKCYQDLASALQILFGCYINFDDTLKESECVPIYEDKDGDWMLAGDVPWEMFLGSCKRLRIMKRSCNRG | binds | binds | no binding |
